The supplement of paper PMC7826260
The other results are listed elsewhere or left out. Cleavage of a single-stranded DNA pool by Rep nickase domains was read by sequencing for 1 h at 37 °C with 3 µM enzyme; only the middle of the 90-letter strands is printed. A value is the log2 ratio of uncut reads to the pool without enzyme; more negative means more cut, near 0 not cut, and no call is made. Because reads are shares of a total, they shift together; uncut strands gain when others are lost, and binding without cutting may add a little.

Tests used:
Experiment in all cases: uncleaved DNA left, log2 of reads against the no-enzyme library (log2 ratio); higher = less cleavage (more negative = more Rep cleavage of the k-mer); sequences stand for … in CTCGTCCG…ACCGGAGA
[1] = system: T1, Rep nickase domain of Muscovy duck circovirus
T1 sequence (Rep 1-111, printed without the tag): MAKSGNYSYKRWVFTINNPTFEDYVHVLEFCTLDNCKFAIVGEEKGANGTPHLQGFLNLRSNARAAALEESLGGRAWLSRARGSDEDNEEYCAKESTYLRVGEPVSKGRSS
Method: (§1)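 A pool of 90-nt single-stranded DNAs with seven random bases just before the constant AC of the nick site (name = the seven bases) was cut by 3 µM recombinant His6-SUMO-tagged Rep nickase domain (300 nM DNA, 50 mM HEPES pH 8.0, 50 mM NaCl, 1 mM MnCl2, 1 h, 37 °C, three replicates). Uncut DNA was amplified and sequenced.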

[2] = system: T2, Rep nickase domain of banana bunchy top virus
T2 sequence (Rep 1-94, printed without the tag): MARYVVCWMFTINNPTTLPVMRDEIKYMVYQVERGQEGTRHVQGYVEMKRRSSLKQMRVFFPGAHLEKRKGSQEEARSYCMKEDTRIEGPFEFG
Method: as §1

[3] = system: T3, Rep nickase domain of cabbage leaf curl virus
T3 sequence (Rep 1-116, printed without the tag): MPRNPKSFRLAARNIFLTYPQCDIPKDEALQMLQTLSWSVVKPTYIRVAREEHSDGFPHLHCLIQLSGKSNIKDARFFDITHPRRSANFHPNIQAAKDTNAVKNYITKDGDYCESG
Method: as §1

[4] = system: T4, Rep nickase domain of chickpea chlorotic dwarf virus
T4 sequence (Rep 1-124, printed without the tag): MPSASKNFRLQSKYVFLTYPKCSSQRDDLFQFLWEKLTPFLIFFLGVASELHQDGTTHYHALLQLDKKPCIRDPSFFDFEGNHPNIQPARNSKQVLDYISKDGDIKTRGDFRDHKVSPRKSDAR
Method: as §1

[5] = system: T5, Rep nickase domain of faba bean necrotic yellows virus
T5 sequence (Rep 1-98, printed without the tag): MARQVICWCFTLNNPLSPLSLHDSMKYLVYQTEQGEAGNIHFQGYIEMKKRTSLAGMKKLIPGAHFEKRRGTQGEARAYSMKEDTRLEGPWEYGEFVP
Method: as §1

[6] = system: T6, Rep nickase domain of maize striate mosaic virus
T6 sequence (Rep 1-117, printed without the tag): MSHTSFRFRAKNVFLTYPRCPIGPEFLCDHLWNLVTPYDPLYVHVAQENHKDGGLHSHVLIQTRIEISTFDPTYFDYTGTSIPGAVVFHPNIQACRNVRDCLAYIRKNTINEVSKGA
Method: as §1

[7] = system: T7, Rep nickase domain of porcine circovirus 2
T7 sequence (Rep 2-116, printed without the tag): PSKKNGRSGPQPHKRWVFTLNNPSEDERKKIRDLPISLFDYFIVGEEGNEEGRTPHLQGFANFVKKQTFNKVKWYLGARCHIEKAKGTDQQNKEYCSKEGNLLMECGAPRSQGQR
Method: as §1

[8] = system: T8, Rep nickase domain of tomato golden mosaic virus
T8 sequence (Rep 1-124, printed without the tag): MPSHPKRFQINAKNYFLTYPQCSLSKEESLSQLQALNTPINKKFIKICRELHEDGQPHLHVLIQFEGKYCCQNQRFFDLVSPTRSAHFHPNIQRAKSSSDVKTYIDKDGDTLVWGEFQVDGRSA
Method: as §1

[9] = system: T9, Rep nickase domain of tomato yellow leaf curl virus
T9 sequence (Rep 1-136, printed without the tag): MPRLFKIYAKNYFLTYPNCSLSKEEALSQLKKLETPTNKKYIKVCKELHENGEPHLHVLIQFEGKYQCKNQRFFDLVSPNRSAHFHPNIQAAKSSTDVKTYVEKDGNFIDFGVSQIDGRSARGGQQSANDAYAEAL
Method: as §1

[10] = system: T10, Rep nickase domain of wheat dwarf virus
T10 sequence (Rep 1-137, printed without the tag): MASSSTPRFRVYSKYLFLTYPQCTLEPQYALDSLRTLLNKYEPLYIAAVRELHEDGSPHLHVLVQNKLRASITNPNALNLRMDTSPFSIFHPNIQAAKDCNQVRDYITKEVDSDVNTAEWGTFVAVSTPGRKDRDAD
Method: as §1

Row | Sequence | uncleaved DNA left (log2) [1] | uncleaved DNA left (log2) [2] | uncleaved DNA left (log2) [3] | uncleaved DNA left (log2) [4] | uncleaved DNA left (log2) [5] | uncleaved DNA left (log2) [6] | uncleaved DNA left (log2) [7] | uncleaved DNA left (log2) [8] | uncleaved DNA left (log2) [9] | uncleaved DNA left (log2) [10]
1 | GTCAGTG | 0.032 | 0.102 | 0.0435 | 0.464 | -0.0105 | 0.483 | 0.0939 | 0.113 | 0.144 | -0.0119
2 | CTTCATT | -0.319 | -0.0781 | -0.15 | -2.22 | 0.0106 | -0.597 | -1.74 | -0.073 | -0.00674 | 0.208
3 | TTTTTTA | -0.111 | 0.0431 | 0.114 | -0.786 | 0.095 | 0.405 | -0.206 | 0.115 | 0.0651 | 0.016
4 | CTTCCTC | -0.0699 | -0.0667 | 0.0336 | -0.311 | -0.0421 | -0.434 | -0.201 | -0.134 | -0.0475 | -0.0602
5 | AACTGAG | 0.151 | 0.0305 | -0.635 | -0.271 | 0.172 | -0.976 | 0.271 | 0.0554 | 0.153 | 0.0459
6 | GTCCAAT | 0.0299 | 0.214 | 0.354 | 1.04 | 0.146 | 1.63 | 0.123 | 0.206 | 0.199 | 0.273
7 | AGTCGGC | -0.0291 | 0.161 | 0.0614 | 0.26 | 0.138 | 0.108 | 0.181 | 0.199 | 0.109 | 0.167
8 | ACTGTCA | -0.0157 | 0.0799 | 0.0185 | -0.206 | 0.0322 | 0.0984 | -0.0416 | 0.0367 | 0.0158 | 0.0504
9 | AATGCGC | 0.0673 | -0.0524 | -0.704 | 0.549 | 0.154 | -0.588 | 0.109 | -0.101 | 0.0785 | -0.0162
10 | TGAAGCG | 0.0105 | 0.0328 | -0.727 | 0.268 | 0.0845 | -0.841 | 0.193 | 0.0406 | 0.0682 | -0.02
11 | GTTTCTC | 0.00813 | 0.114 | 0.311 | 0.877 | -0.0309 | 1.59 | 0.0681 | -0.0131 | -0.0111 | 0.0909
12 | GATCTCG | 0.0952 | 0.0527 | -0.75 | -0.481 | 0.0244 | -0.958 | 0.128 | -0.00446 | -0.00156 | 0.0115
13 | CCATGTT | -3.48 | -0.557 | -3.01 | -2.87 | -0.171 | -1.67 | -3.48 | -1.27 | -0.0294 | -1.04
14 | ATAGGCT | 0.0441 | 0.00921 | 0.0276 | 0.687 | -0.084 | 0.761 | 0.0942 | 0.125 | -0.138 | 0.0604
15 | CTACTCC | -0.146 | -0.134 | 0.0567 | -0.833 | -0.0427 | 0.432 | 0.0664 | -0.0222 | 0.0118 | -0.0572
